Test results taken from paper PMC7865145, “Identification of existing pharmaceuticals and herbal medicines as inhibitors of SARS-CoV-2 infection” (Proceedings of the National Academy of Sciences of the …, 2021).

Target: 3CL main protease (nsp5) of SARS-CoV-2 (Severe acute respiratory syndrome coronavirus 2, UniProt P0DTD1)
Test: biochemical
[1] = FRET-based enzymatic assay, 3 independent experiments, N.I. = no inhibition, read-out: Inhibition % at 100 uM of compounds, 3CL main protease (nsp5)
[2] = FRET-based enzymatic assay, 3 independent experiments, N.I. = no inhibition
[3] = calculated from the production of substrate based on HPLC analysis, read-out: Inhibition % at 100 uM of compounds, 3CL main protease (nsp5), value in parentheses
[4] = FRET-based enzymatic assay, three independent experiments, read-out: IC50 for 3CL protease inhibition

SMILES | inhibition at 100 µM [1] [%] | Inhibition % at 100 uM of compounds, 3CL main protease (nsp5) [2] | further results
CC1=C(C(=O)OC(C)C)C(c2cccc([N+](=O)[O-])c2)C(C(=O)OC2CN(C(c3ccccc3)c3ccccc3)C2)=C(N)N1 (stereo not drawn) [Azelnidipine 10, Azelnidipine] | 2 |  | 
CC(C)(C)NC(=O)N[C@H](C(=O)N1C[C@H]2[C@@H]([C@H]1C(=O)NC(CC1CCC1)C(=O)C(N)=O)C2(C)C)C(C)(C)C (stereo partly drawn) [Boceprevir 2, Boceprevir] | 93.8 | showed inhibition | inhibition at 100 µM [3]: 83.6%
COc1ccc2cc1Oc1ccc(cc1)C[C@H]1c3c(cc4c(c3Oc3cc5c(cc3OC)CCN(C)[C@@H]5C2)OCO4)CCN1C [Cepharanthine 4, Cepharanthine] |  | N.I. | 
CCCCc1oc2ccc(NS(C)(=O)=O)cc2c1C(=O)c1ccc(OCCCN(CCCC)CCCC)cc1 [Dronedarone 12, Dronedarone] | 41.5 |  | inhibition at 100 µM [3]: 28.7%
CC(C)(C)c1cc(C(C)(C)C)c(NC(=O)c2c[nH]c3ccccc3c2=O)cc1O [Ivacaftor 9, Ivacaftor] | 10.9 |  | 
CC[C@H](C)[C@H]1O[C@]2(CC[C@@H]1C)C[C@@H]1C[C@@H](C/C=C(\C)[C@@H](O[C@H]3C[C@H](OC)[C@@H](O[C@H]4C[C@H](OC)[C@@H](O)[C@H](C)O4)[C@H](C)O3)[C@@H](C)/C=C/C=C3\CO[C@@H]4[C@H](O)C(C)=C[C@@H](C(=O)O1)[C@]34O)O2 [Ivermectin 6, Ivermectin] |  | N.I. | 
CC(=O)N[C@@H](C)C(=O)N[C@H](C(=O)N[C@@H](Cc1ccccc1)[C@@H](O)[C@H](O)[C@H](Cc1ccccc1)NC(=O)[C@@H](NC(=O)[C@H](C)NC(C)=O)C(C)C)C(C)C [JJS-0309] |  |  | IC50: 10.5 ± 0.3 µM; Ki: 46 µM
Cc1cccc(C)c1OCC(=O)N[C@@H](Cc1ccccc1)[C@@H](O)C[C@H](Cc1ccccc1)NC(=O)[C@H](C(C)C)N1CCCNC1=O [Lopinavir] |  |  | IC50 [4]: 234 ± 98 µM
CO[C@@H]1[C@@H](OC)[C@H](C)[C@@](O)(CC(=O)O)O[C@H]1[C@H](C)[C@H]1O[C@@]2(CC[C@@](C)([C@H]3CC[C@@](C)([C@@H]4O[C@@H]([C@H]5O[C@](C)(O)[C@H](C)C[C@@H]5C)C[C@@H]4O[C@@H]4C[C@H](OC)[C@@H](OC)[C@H](C)O4)O3)O2)C[C@H](O)[C@H]1C [Maduramicin 15, Maduramicin] |  | N.I. | 
OC(c1cc(C(F)(F)F)nc2c(C(F)(F)F)cccc12)C1CCCCN1 (stereo not drawn) [Mefloquine 8, Mefloquine] |  | N.I. | 
CC[C@@]1([C@@H]2O[C@@H]([C@H]3O[C@@](O)(CO)[C@H](C)C[C@@H]3C)C[C@@H]2C)CC[C@H]([C@]2(C)CC[C@]3(C[C@H](O)[C@@H](C)[C@@H]([C@@H](C)[C@@H](OC)[C@H](C)C(=O)O)O3)O2)O1 [Monensin 14, Monensin] |  | N.I. | 
CO/N=C1\C[C@]2(C[C@@H]3C[C@@H](C/C=C(\C)C[C@@H](C)/C=C/C=C4\CO[C@@H]5[C@H](O)C(C)=C[C@@H](C(=O)O3)[C@]45O)O2)O[C@H](/C(C)=C/C(C)C)[C@H]1C [Moxidectin 7, Moxidectin] | 2.8 |  | 
Cc1c(O)cccc1C(=O)N[C@@H](CSc1ccccc1)[C@H](O)CN1C[C@H]2CCCC[C@H]2C[C@H]1C(=O)NC(C)(C)C [Nelfinavir 1, Nelfinavir] | 21 | showed inhibition | IC50: 118 ± 18 µM; Ki: 38.8 µM; inhibition at 100 µM [3]: 10.3%
OC1(c2ccc(Cl)c(C(F)(F)F)c2)CCN(CCCC(c2ccc(F)cc2)c2ccc(F)cc2)CC1 [Penfluridol 11, Penfluridol] | 25.6 |  | 
CC[C@@H](C(=O)[C@@H](C)[C@@H](O)[C@H](C)[C@@H]1O[C@@H]([C@@H](CC)C(=O)O)CC[C@@H]1C)[C@H]1O[C@]2(C=C[C@@H](O)[C@]3(CC[C@@](C)([C@H]4CC[C@](O)(CC)[C@H](C)O4)O3)O2)[C@H](C)C[C@@H]1C [Salinomycin 13, Salinomycin] |  | N.I. | 
CC(C)[C@H](NC(=O)[C@H](C)NC(=O)OCc1ccccc1)C(=O)N[C@@H](Cc1ccccc1)[C@@H](O)[C@H](O)[C@H](Cc1ccccc1)NC(=O)[C@@H](NC(=O)[C@H](C)NC(=O)OCc1ccccc1)C(C)C [TL-3] |  |  | IC50 [4]: 25 µM

Read-outs that look alike come from different tables or passages of the source.
